According to PubChem BioAssay (NCI):
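1) Cells in 96-well plates. 2) Compound, 48 h, 5 concentrations. 3) Linear interpolation between surrounding doses. 4) Unreached endpoint = highest concentration. Definition used: TGI = concentration required for complete inhibition of growth.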 Not every entry of the source has a single result; some have several. Only these are listed. The source may hold further records. The tests behind the records often covered other concentration ranges, which the source does not state; a value can be the end of its range.

Tested on: MDA-MB-468 breast
Assay: inhibition of tumour cell growth, NCI panel, 48 h

SMILES: COc1ccc2c(c1)NC(=O)CN2c1nc(C)nc2ccccc12
- TGI: 3.57 nM and > 100 µM
